Test results from the supplement of paper PMC12217912.
Some of the results follow. Sequences were assembled here from the parent chain. Inactive controls read about 0.05.

B1: TEV protease; numbered along this chain (parent)
chain: MGESLFKGPRDYNPISSSICHLTNESDGHTTSLYGIGFGPFIITNKHLFRRNNGTLVVQSLHGVFKVKDTTTLQQHLVDGRDMIIIRMPKDFPPFPQKLKFREPQREERICLVTTNFQTKSMSSMVSDTSCTFPSGDGIFWKHWIQTKDGQCGSPLVSTRDGFIVGIHSASNFTNTNNYFTSVPKNFMELLTNQEAQQWVSGWRLNADSVLWGGHKVFMVKPEEPFQPVKEATQL

Variants of: B1
Assay: raw area under fraction-flipped curve 0-4 h after induction (AUC4h, not background-subtracted), DNA-recorder readout of cleavage of the substrate (dimensionless); higher = more cleavage of the substrate by the protease variant
Details: temperature: 34 °C; time window: 0-4 h after rhamnose induction
Description: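 In vivo DNA recorder in E. coli TOP10(DE3) ΔrhaA at 34 °C. Each TEVp single-site mutant (parent TEVp 0) is paired with a single-site variant of the 7-mer TEVs (canonical ENLYFQ|S). The substrate sits between flexible linkers in a Bxb1-sfGFP-TEVs-SsrA fusion, so cleavage stabilises Bxb1 and speeds flipping of a recombination array, read by NGS. The value is the raw area under the fraction-flipped curve over 0-4 h after rhamnose induction (AUC4h), with ≥20 reads per time point. It is not background-subtracted; inactive controls average about 0.047.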
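Further: Bxb1 expression induced with 0.2% (w/v) L-rhamnose at OD600 near 0.5, cultures sampled hourly, flipped fraction per protease–substrate barcode pair counted by paired-end Illumina sequencing.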

MGESLFKGPRDYNPISSSICHLTNESDGHTTSLYGIGFGPFIITNKHLFRRNNGTLVVQSLHGVFKVKDTTTLQQHLVDGRDMIIIRMPKDFPPFPQKLKFREPQREERICLVTTNFQTKSMSSMVSDTSTTFPSGDGIFWKHWIQTKDGQCGSPLVSTRDGFIVGIHSASNFTNTNNYFTSVPKNFMELLTNQEAQQWVSGWRLNADSVLWGGHKVFMVKPEEPFQPVKEATQL [C131T]
area with substrate ANLYFQS: 0.0847
area with substrate CNLYFQS: 0.0784
area with substrate FNLYFQS: 0.0516
area with substrate HNLYFQS: 0.078
area with substrate INLYFQS: 0.0507
area with substrate LNLYFQS: 0.0585
area with substrate PNLYFQS: 0.0685
area with substrate SNLYFQS: 0.0776
area with substrate WNLYFQS: 0.0836

MGESLFKGPRDYNPISSSICHLTNESDGHTTSLYGIGFGPFIITNKHLFRRNNGTLVVQSLHGVFKVKDTTTLQQHLVDGRDMIIIRMPKDFPPFPQKLKFREPQREERICLVTTNFQTKSMSSMVSDTSCTFPSGDGIFWKHWIQTKDGQCGSPLVSTRDGFIVGIHSASNFTNTNNYFTSVPKNFMELLTNQEAQQWVSGWRLNADSVLWGGHKVFMVKPREPFQPVKEATQL [E223R]
area with substrate ANLYFQS: 0.0465
area with substrate CNLYFQS: 0.0663
area with substrate FNLYFQS: 0.0549
area with substrate GNLYFQS: 0.0693
area with substrate HNLYFQS: 0.0572
area with substrate INLYFQS: 0.0696
area with substrate KNLYFQS: 0.0626
area with substrate MNLYFQS: 0.0705
area with substrate NNLYFQS: 0.0636
area with substrate PNLYFQS: 0.0612
area with substrate QNLYFQS: 0.0671
area with substrate SNLYFQS: 0.0478
area with substrate TNLYFQS: 0.0665
area with substrate VNLYFQS: 0.0507
area with substrate WNLYFQS: 0.0637

MGESLFKGPRDYNPISSSICHLTNESDGHTTSLYGIGFGPFIITNKHLFRRNNGTLVVQSLHGVFKVKDTTTLQQHLVDGRDMIIIRMPKDFPPFPQKLKFREPQREERICLVTTNFQTKSMSSMVSDTSCTFPSGDGIFWKHWIQTKDGQCGSPLVSTRDGFIVGIHSASNFTNTNNYFTSVPKNFMELLTNQEAQQDVSGWRLNADSVLWGGHKVFMVKPEEPFQPVKEATQL [W199D]
area with substrate ANLYFQS: 0.0693
area with substrate DNLYFQS: 0.0559
area with substrate HNLYFQS: 0.0607
area with substrate MNLYFQS: 0.049
area with substrate NNLYFQS: 0.0609
area with substrate PNLYFQS: 0.0576
area with substrate SNLYFQS: 0.0677
area with substrate TNLYFQS: 0.0611
area with substrate WNLYFQS: 0.0474
area with substrate YNLYFQS: 0.0508

MGESLFKGPRDYNPISSSICHLTNESDGHTTSLYGIGFGPFIITNKHLFRRNNGTLVVQSLHGVFKVKDTTTLEQHLVDGRDMIIIRMPKDFPPFPQKLKFREPQREERICLVTTNFQTKSMSSMVSDTSCTFPSGDGIFWKHWIQTKDGQCGSPLVSTRDGFIVGIHSASNFTNTNNYFTSVPKNFMELLTNQEAQQWVSGWRLNADSVLWGGHKVFMVKPEEPFQPVKEATQL [Q74E]
area with substrate ANLYFQS: 0.0605
area with substrate CNLYFQS: 0.0381
area with substrate FNLYFQS: 0.0667
area with substrate GNLYFQS: 0.0782
area with substrate HNLYFQS: 0.0569
area with substrate MNLYFQS: 0.066
area with substrate PNLYFQS: 0.0801
area with substrate WNLYFQS: 0.0401
area with substrate YNLYFQS: 0.0519

MGESLFKGPRDYNPISSSICHLTNESDGHTTSLYGIGFGPFIITNKHLFRRNNGTLVVQSLHGVFKVKDTTTLQQHLVDGRDMIIIRMPKDFPPFPQKLKFREPQREERICLVTTNFQTKSMSSMVSDTSCTFPSGDGIFWKHWIQTKDGQCGSPLVSTRDGFIVGIHSASNFTNTNNYFTSVPKNNMELLTNQEAQQWVSGWRLNADSVLWGGHKVFMVKPEEPFQPVKEATQL [F187N]
area with substrate ANLYFQS: 0.0748
area with substrate CNLYFQS: 0.062
area with substrate FNLYFQS: 0.054
area with substrate HNLYFQS: 0.105
area with substrate INLYFQS: 0.0581
area with substrate KNLYFQS: 0.0645
area with substrate LNLYFQS: 0.0247
area with substrate NNLYFQS: 0.0537
area with substrate PNLYFQS: 0.0509
area with substrate QNLYFQS: 0.021
area with substrate TNLYFQS: 0.0422
area with substrate WNLYFQS: 0.0438
area with substrate YNLYFQS: 0.0617
